In patent publication US11198713B2, “Agents modulating beta-catenin functions and methods thereof” (FOG PHARMACEUTICALS, INC., priority 2017, dated 2021):
At least one peptide structure holds a part that was inferred or is arguable (an end, a ring closure or a residue).

System: TCF/LEF Luciferase reporter HEK293 cell lines
Assay: TCF/LEF reporter assay
Type: cell-based
Conditions: 10 μM, Table 2

Row | SMILES | TCF/LEF Reporter Inhibition at 10 μM
1 | CC[C@H](C)[C@@H]1NC(=O)[C@H](Cc2c[nH]cn2)NC(=O)[C@H](C)NC(=O)[C@H](C(C)C)NC(=O)[C@H](CC(C)C)NC(=O)[C@H]([C@@H](C)CC)NC(=O)C2(NC(=O)[C@H](C)NC(C)=O)CN(C2)C(=O)OCC=CCCCCCC[C@@](C)(C(=O)N[C@@H](Cc2ccc(O)cc2)C(=O)N[C@H](C(=O)N[C@@H](Cc2c[nH]c3ccccc23)C(N)=O)C(C)C)NC1=O [FP0357c, Ac-A-MA-I-L-V-A-H-I-S8-Y-V-W-NH2] | 37%
2 | CC[C@H](C)[C@@H]1NC(=O)[C@H](Cc2c[nH]cn2)NC(=O)[C@H](C)NC(=O)[C@H](CC(=O)O)NC(=O)[C@H](CC(C)C)NC(=O)[C@H]([C@@H](C)CC)NC(=O)[C@](C)(NC(=O)[C@H](C)NC(C)=O)CCCCCCC=CCOC(=O)N2CC[C@@](C(=O)N[C@H](C(=O)N[C@H](C(=O)N[C@@H](Cc3c[nH]c4ccccc34)C(N)=O)C(C)C)C(C)C)(C2)NC1=O [FP0368c, Ac-A-R8-I-L-D-A-H-I-MB-V-V-W-NH2] | 0%
3 | CC[C@H](C)[C@@H]1NC(=O)[C@H](Cc2c[nH]cn2)NC(=O)[C@H](C)NC(=O)[C@H](Cc2ccc(F)cc2)NC(=O)[C@H](CC(C)C)NC(=O)[C@H]([C@@H](C)CC)NC(=O)C2(NC(=O)[C@H](C)NC(C)=O)CN(C2)C(=O)OCC=CCCCCCC[C@@](C)(C(=O)N[C@H](C(=O)N[C@H](C(=O)N[C@@H](Cc2c[nH]c3ccccc23)C(N)=O)C(C)C)C(C)C)NC1=O [FP0369c, Ac-A-MA-I-L-4FF-A-H-I-S8-V-V-W-NH2] | 38%
4 | CC[C@H](C)[C@@H]1NC(=O)[C@H](Cc2c[nH]cn2)NC(=O)[C@H](C)NC(=O)[C@H](CC(=O)O)NC(=O)[C@H](CC(C)C)NC(=O)[C@H]([C@@H](C)CC)NC(=O)[C@](C)(NC(=O)[C@H](C)NC(C)=O)CCCCCCC=CCOC(=O)N2CC[C@@](C(=O)N[C@@H](Cc3ccccc3)C(=O)N[C@H](C(=O)N[C@@H](Cc3c[nH]c4ccccc34)C(N)=O)C(C)C)(C2)NC1=O [FP0371c, Ac-A-R8-I-L-D-A-H-I-MB-F-V-W-NH2] | 46%
5 | CC[C@H](C)[C@@H]1NC(=O)[C@H](Cc2c[nH]cn2)NC(=O)[C@H](C)NC(=O)[C@H](CC(=O)O)NC(=O)[C@H](CC(C)C)NC(=O)[C@H]([C@@H](C)CC)NC(=O)[C@](C)(NC(=O)[C@H](C)NC(C)=O)CCCCCCC=CCOC(=O)N2CC[C@@](C(=O)N[C@@H](CCCNC(=N)N)C(=O)N[C@@H](CC3CCCCC3)C(=O)N[C@@H](Cc3c[nH]c4ccccc34)C(N)=O)(C2)NC1=O [FP0380c, Ac-A-R8-I-L-D-A-H-I-MB-R-Cha-W-NH2] | 25%
6 | CC[C@H](C)[C@@H]1NC(=O)[C@](C)(NC(=O)[C@H](C)NC(C)=O)CCCCCCC=CCOC(=O)N2CC[C@@](C(=O)N[C@@H](CCCNC(=N)N)C(=O)N[C@H](C(=O)N[C@@H](Cc3c[nH]c4ccccc34)C(N)=O)C(C)C)(C2)NC(=O)[C@H](CC2CCCCC2)NC(=O)[C@H](Cc2c[nH]cn2)NC(=O)[C@H](C)NC(=O)[C@H](CC(=O)O)NC(=O)[C@H](CC(C)C)NC1=O [FP0383c, Ac-A-R8-I-L-D-A-H-Cha-MB-R-V-W-NH2] | 22%
7 | CC[C@H](C)[C@@H]1NC(=O)[C@H](Cc2c[nH]cn2)NC(=O)[C@H](C)NC(=O)[C@H](CC2CCCCC2)NC(=O)[C@H](CC(C)C)NC(=O)[C@H]([C@@H](C)CC)NC(=O)[C@](C)(NC(=O)[C@H](C)NC(C)=O)CCCCCCC=CCOC(=O)N2CC[C@@](C(=O)N[C@@H](CCCNC(=N)N)C(=O)N[C@H](C(=O)N[C@@H](Cc3c[nH]c4ccccc34)C(N)=O)C(C)C)(C2)NC1=O [FP0395c, Ac-A-R8-I-L-Cha-A-H-I-MB-R-V-W-NH2] | 32%
8 | CC[C@H](C)[C@@H]1NC(=O)[C@H](Cc2c[nH]cn2)NC(=O)[C@H](C)NC(=O)[C@H](CC(=O)O)NC(=O)[C@H](CC(C)C)NC(=O)[C@H]([C@@H](C)CC)NC(=O)[C@](C)(NC(=O)[C@H](C)NC(C)=O)CCCCCCC=CCOC(=O)N2CC[C@@](C(=O)N[C@@H](CO)C(=O)N[C@H](C(=O)N[C@@H](Cc3c[nH]c4ccccc34)C(N)=O)C(C)C)(C2)NC1=O [FP0542c, Ac-A-R8-I-L-D-A-H-I-MB-S-V-W-NH2] | 18%
9 | CC[C@H](C)[C@@H]1NC(=O)[C@H](Cc2c[nH]cn2)NC(=O)[C@H](C)NC(=O)[C@H](CCS(C)(=O)=O)NC(=O)[C@H](CC(C)C)NC(=O)[C@H]([C@@H](C)CC)NC(=O)[C@](C)(NC(=O)[C@H](C)NC(C)=O)CCCCCCC=CCOC(=O)N2CC[C@@](C(=O)N[C@@H](CCCNC(=N)N)C(=O)N[C@H](C(=O)N[C@@H](Cc3c[nH]c4ccccc34)C(N)=O)C(C)C)(C2)NC1=O [FP0629c, Ac-A-R8-I-L-M2O-A-H-I-MB-R-V-W-NH2] | 49%
10 | CC[C@H](C)[C@@H]1NC(=O)[C@H](Cc2c[nH]cn2)NC(=O)[C@H](C)NC(=O)[C@H](CC(=O)O)NC(=O)[C@H](CC(C)C)NC(=O)[C@H]([C@@H](C)CC)NC(=O)[C@](C)(NC(=O)[C@H](C)NC(C)=O)CCCCCCC=CCOC(=O)N2CC[C@@](C(=O)N[C@@H](CCCNC(=N)N)C(=O)N[C@H](C(=O)N[C@H](Cc3c[nH]c4ccccc34)C(N)=O)C(C)C)(C2)NC1=O [FP0630c, Ac-A-R8-I-L-D-A-H-I-MB-R-V-dW-NH2] | 53%
11 | CC[C@H](C)[C@@H]1NC(=O)[C@H](Cc2c[nH]cn2)NC(=O)[C@H](C)NC(=O)[C@H](CC(=O)O)NC(=O)[C@H](CC(C)C)NC(=O)[C@H]([C@@H](C)CC)NC(=O)[C@](C)(NC(=O)[C@H](C)NC(C)=O)CCCCCCC=CCOC(=O)N2CC[C@@](C(=O)N[C@@H](CCCNC(=N)N)C(=O)N[C@H](C(=O)N[C@@](C)(Cc3c[nH]c4ccccc34)C(N)=O)C(C)C)(C2)NC1=O [FP0631c, Ac-A-R8-I-L-D-A-H-I-MB-R-V-aMeW-NH2] | 0%
12 | CC[C@H](C)[C@@H]1NC(=O)[C@H](Cc2c[nH]cn2)NC(=O)[C@H](C)NC(=O)[C@H](CC(=O)O)NC(=O)[C@H](CC(C)C)NC(=O)[C@H]([C@@H](C)CC)NC(=O)[C@](C)(NC(=O)[C@H](C)NC(C)=O)CCCCCCC=CCOC(=O)N2CC[C@@](C(=O)N[C@@H](CCCNC(=N)N)C(=O)N[C@](C)(C(=O)N[C@@H](Cc3c[nH]c4ccccc34)C(N)=O)C(C)C)(C2)NC1=O [FP0632c, Ac-A-R8-I-L-D-A-H-I-MB-R-aMeV-W-NH2] | 57%
13 | CC[C@H](C)[C@@H]1NC(=O)[C@H](Cc2c[nH]cn2)NC(=O)[C@H](C)NC(=O)[C@H](CC(=O)O)NC(=O)[C@H](CC(C)C)NC(=O)[C@H]([C@@H](C)CC)NC(=O)[C@](C)(NC(=O)[C@H](C)NC(C)=O)CCCCCCC=CCOC(=O)N2CC[C@@](C(=O)N[C@@H](CCCNC(=N)N)C(=O)N[C@@](C)(CC(C)C)C(=O)N[C@@H](Cc3c[nH]c4ccccc34)C(N)=O)(C2)NC1=O [FP0633c, Ac-A-R8-I-L-D-A-H-I-MB-R-aMeL-W-NH2] | 16%
14 | CC[C@H](C)[C@@H]1NC(=O)[C@H](Cc2c[nH]cn2)NC(=O)[C@H](C)NC(=O)[C@H](CC(=O)O)NC(=O)[C@H](CC(C)C)NC(=O)[C@H]([C@@H](C)CC)NC(=O)[C@](C)(NC(=O)[C@H](C)NC(C)=O)CCCCCCC=CCOC(=O)N2CC[C@@](C(=O)N[C@@H](CCCCNC(=N)N)C(=O)N[C@H](C(=O)N[C@@H](Cc3c[nH]c4ccccc34)C(N)=O)C(C)C)(C2)NC1=O [FP0634c, Ac-A-R8-I-L-D-A-H-I-MB-hArg-V-W-NH2] | 45%
